Hit rate of the full screen: of about 310,000 compounds, about 14,000 (4.5%) showed an effect of 50% or more. Effects have a minus sign here. The list shows a part of the results.
target: human ether-à-go-go-related gene (hERG) potassium channel (human, UniProt Q12809); test: primary screen, population patch clamp on CHO cells stably expressing hERG
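Further: peak tail current of the secondary pulse compared with the same well before compound.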

Chain of human ether-à-go-go-related gene (hERG) potassium channel (Q12809 whole entry, looked up): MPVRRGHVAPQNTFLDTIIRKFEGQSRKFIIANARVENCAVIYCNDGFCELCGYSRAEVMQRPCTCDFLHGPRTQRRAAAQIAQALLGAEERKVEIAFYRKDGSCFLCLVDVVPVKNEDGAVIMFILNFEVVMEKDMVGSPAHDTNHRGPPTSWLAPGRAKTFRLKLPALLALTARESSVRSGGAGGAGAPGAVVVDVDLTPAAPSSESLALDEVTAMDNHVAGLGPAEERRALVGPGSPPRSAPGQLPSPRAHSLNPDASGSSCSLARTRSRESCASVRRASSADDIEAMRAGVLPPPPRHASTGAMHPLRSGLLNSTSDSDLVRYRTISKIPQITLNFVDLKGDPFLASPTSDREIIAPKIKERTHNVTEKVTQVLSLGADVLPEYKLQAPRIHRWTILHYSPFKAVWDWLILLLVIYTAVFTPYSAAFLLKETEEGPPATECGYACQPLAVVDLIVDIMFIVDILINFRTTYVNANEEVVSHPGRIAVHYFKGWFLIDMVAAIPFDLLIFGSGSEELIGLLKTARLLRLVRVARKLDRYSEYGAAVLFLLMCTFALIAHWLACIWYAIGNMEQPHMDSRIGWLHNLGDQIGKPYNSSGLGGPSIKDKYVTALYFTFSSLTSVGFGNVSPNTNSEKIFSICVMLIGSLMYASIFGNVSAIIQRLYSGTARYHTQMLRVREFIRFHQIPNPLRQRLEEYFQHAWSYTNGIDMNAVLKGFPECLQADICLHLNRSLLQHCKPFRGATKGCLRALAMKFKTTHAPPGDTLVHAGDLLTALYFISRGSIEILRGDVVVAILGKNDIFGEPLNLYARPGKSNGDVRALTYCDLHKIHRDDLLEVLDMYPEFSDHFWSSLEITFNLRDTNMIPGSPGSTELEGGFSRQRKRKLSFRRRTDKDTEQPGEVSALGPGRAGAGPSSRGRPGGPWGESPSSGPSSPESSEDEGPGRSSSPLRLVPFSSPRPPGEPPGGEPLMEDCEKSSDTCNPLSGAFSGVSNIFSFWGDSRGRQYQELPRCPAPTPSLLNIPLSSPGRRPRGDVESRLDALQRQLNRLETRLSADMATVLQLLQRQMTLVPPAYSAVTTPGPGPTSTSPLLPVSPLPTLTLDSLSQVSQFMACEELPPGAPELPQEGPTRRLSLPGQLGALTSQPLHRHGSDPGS

Row | Structure (SMILES) | hERG current change (%, negative = inhibition) at 10uM
1 | O=C1CN(C(=O)c2cc3ccccc3oc2=O)C(c2ccc(F)cc2)c2cc(F)ccc2N1 (stereo not shown) | -32.1%
2 | COc1ccc([C@@H]2CC=C(C(=O)O)[C@H](c3ccccc3)N2S(=O)(=O)c2ccccc2C)cc1 | 19.6%
3 | CCOc1ccc(CSC(=N)N)cc1.Cl | -2.44%
4 | COc1ccc(CNC(=O)Oc2ccccc2)cc1Cl | -12.7%
5 | COc1ccc(C(=O)NC2CCN(Cc3c(F)cccc3Cl)CC2)cc1OC | -1.46%
6 | CC1(C)CC(=O)C2=C(C1)NC(=O)CC2c1ccccc1F (stereo not shown) | -4.52%
7 | CCN(CC)c1ccc(/C=N/NC(=O)c2ccccn2)cc1 | -5.37%
8 | CC(C)OCCCNC(=O)CCCC(=O)Nc1ccc(OCCc2ccccc2)cc1 | 3.85%
9 | C=COCCNC(=O)Nc1ccc(Cl)cc1Cl | 2.05%
10 | Cc1ccc([N+](=O)[O-])cc1S(=O)(=O)N1CCCN(C)CC1.Cl | 8.94%
11 | CNCc1ccccc1OCc1ccccc1F.Cl | -4.37%
12 | O=C1NN(c2ccccc2)C(=O)/C1=C\c1cccc(OC(=O)c2cccs2)c1 | 7.65%
13 | CCOc1ccccc1Oc1cn[nH]c1-c1ccc(O)cc1O | -3.75%
14 | C=CCNc1nc(Nc2ccccc2F)nc(OCC)n1 | -11.1%
15 | COc1cc(/C=C(\C#N)c2[nH]nc(N)c2C#N)cc(OC)c1O | 18.1%
16 | COc1cc(NS(=O)(=O)c2ccc(NC(=S)NC(=O)c3ccc(F)cc3)cc2)nc(OC)n1 | 3.73%
17 | CN(C)CCCN(Cc1cc2cc3c(cc2[nH]c1=O)OCO3)C(=S)Nc1cccc(Cl)c1 | -45.7%
18 | O=C(CCc1ccccc1)NNC(=S)Nc1ccc(F)cc1 | 10.5%
19 | CCOc1ccccc1C1CC(c2ccc(Br)cc2)Nc2nc(N)nn21 (stereo not shown) | -55.1%
20 | Cc1ccc(NS(=O)(=O)c2ccc(Br)s2)cc1S(=O)(=O)N1CCOCC1 | 20.5%
21 | CC(=O)Nc1ccccc1NC(=O)c1cc(C)cc(C)c1 | 20.1%
22 | CC1C(=O)C(C)C(c2ccccc2F)NC1c1ccccc1F (stereo not shown) | 9.43%
23 | O=C(Cc1ccc(Nc2nc(=S)[nH]c3ccccc23)cc1)NC1CCCCC1 | 29%

Row | Structure (SMILES) | hERG current change (%, negative = inhibition) at 10uM
24 | COc1ccc(OC)c(C(=O)c2ccc(C(=O)Nc3cccc4ccccc34)cc2)c1 | 9.47%
25 | CC(C)CC1NC(=O)N(CC(=O)c2ccc3c(c2)OCCO3)C1=O (stereo not shown) | 6.78%
26 | Cc1ccc(Cl)cc1N1CCN(S(=O)(=O)c2cc3c(cc2C)NC(=O)CO3)CC1 | 11.3%
27 | O=C(Nc1ccc2[nH]ncc2c1)C1CCC1 | 10.1%
28 | CC(c1ccon1)N(C)C(=O)c1ccc2nc(Cc3cccc(Cl)c3)oc2c1 (stereo not shown) | -42.7%
29 | COc1cccc([C@@H]2Oc3ccc(OC)cc3C(=O)[C@H]2OC(=O)N[C@H](C)C2CCCCC2)c1 | 7.6%
30 | CCN(CC)S(=O)(=O)c1csc(C(=O)Nc2ccccn2)c1 | -9.44%
31 | O=C(Nc1ccc(Cl)cc1)C1CCN(C(=O)c2cccs2)CC1 | -16.2%
32 | C#CCn1c(S(=O)(=O)Cc2ccc(F)cc2)nc(-c2ccccc2)c1-c1ccccc1 | -15.9%
33 | COC(=O)CSc1nnc(CNC(=O)c2ccc(S(=O)(=O)N(C)C)cc2)n1C | 12.8%
34 | Cc1cc(C(F)F)nn1CC(=O)NC1CCCCCC1 | 11.9%
35 | Cc1ccc(S(=O)(=O)c2c(C)cc(C)nc2Oc2cccc(C)c2C)cc1 | 8.59%
36 | CCCCn1c(CNC(=O)c2cccs2)nc2ccccc21 | -30.2%
37 | COc1ccc(Nc2nc(-c3cccc([N+](=O)[O-])c3)nc3ccccc23)cc1 | -5.91%
38 | CN1CCN(c2ccc3c(c2)S(=O)(=O)c2ccccc2C3=O)CC1 | -23.4%
39 | Cc1ccc(NC(=O)CCN2C(=O)c3ccncc3C2=O)cc1 | 8.48%
40 | CCn1c(N2CCN(C(=O)c3ccco3)CC2)nc2ccccc21 | -50.7%
41 | Cc1ccc(C(=O)NC(=S)Nc2ccccc2C(F)(F)F)c(C)c1 | 14.1%
42 | Cc1ccccc1CN1CCC(n2nccc2NC(=O)c2ccc3c(c2)OCO3)CC1 | -9.06%
43 | Cc1nc2ncnn2c(N2CCC(C(=O)NCC3CCCO3)CC2)c1Cc1ccccc1 (stereo not shown) | -17.6%
44 | Cc1ccccc1OCCOc1ccccc1C=C(C#N)C#N | 24.5%
45 | Cc1ccc(NC(=O)CC2COc3ccccc3O2)cc1 (stereo not shown) | 1.47%
46 | O=C(CCC(=O)NC1CCCCC1)NCc1ccc(F)cc1 | -1.02%

Row | Structure (SMILES) | hERG current change (%, negative = inhibition) at 10uM
47 | O=C(O)c1ccc(S(=O)(=O)Cc2ccccc2)cc1 | 10.9%
48 | CCOC(=O)c1c(/N=C/c2cc(C)ccc2O)sc2c1CCN(C)C2 | 1.55%
49 | CC(=O)Nc1cc(C(=O)OC(C(=O)c2ccccc2)c2ccccc2)ccc1C (stereo not shown) | 1.24%
50 | O=C(Nc1ccc(Br)cc1)c1cccc(N2C(=O)CCC2=O)c1 | 6.71%
51 | COc1cc2c(C(=O)N3CCN(c4ccccc4F)CC3)cn(C)c(=O)c2cc1OC | -33.1%
52 | COC(=O)C1=C(c2ccc(OC(F)(F)F)cc2)C[C@@H]2CC[C@H]1N2C(=O)NCc1ccc(F)cc1 | -39.5%
53 | O=C1/C(=C\c2cccs2)SC(=S)N1C1CCS(=O)(=O)C1 (stereo not shown) | 9.01%
54 | N#CC1(NC(=O)CN2C(=O)c3ccccc3C2=O)CCCCC1 | -3.31%
55 | COc1cc(C(=O)NNC(=S)NC(=O)c2ccc(Cl)cc2)cc(OC)c1OC | 4.79%
56 | N#Cc1c(NC(=O)CN2CCCCC2)sc2c1CCC2 | 8.67%
57 | Cc1ccc(Sc2c(C#N)c(-c3ccccc3)nn2C)cc1 | -16.1%
58 | COC(=O)Cc1c(C)nc2nc(Cc3ccccc3)[nH]n2c1=O | 10.2%
59 | Cc1cc(C)nc(-n2nc(C)cc2NC(=O)CN2CCC(C)CC2)n1 | -65.6%
60 | CCOC(=O)c1c(NC(=O)COc2ncnc3ccccc23)sc(C)c1CC | -12.5%
61 | CC(C)CC1=NN(C(=O)c2cccnc2)C(O)(C(F)(F)F)C1 (stereo not shown) | 15.1%
62 | Cc1ccccc1OCc1ccc(C(=O)N2CCOCC2)o1 | 6.86%
63 | O=[N+]([O-])c1ccc(N2CCc3ccccc3C2)nc1 | -15.2%
64 | COc1ccccc1OCC(=O)N1CCNC1=O | -8.41%
65 | Cc1onc(-c2ccccc2)c1-c1ccc(S(N)(=O)=O)cc1 | -18.3%
66 | COC(=O)c1cc(NC(=O)Cc2ccccc2[N+](=O)[O-])cc(C(=O)OC)c1 | 10.9%
67 | O=C(CN1CCCCCC1)Nc1ccc(Cl)cc1F | -2.05%
68 | CCCc1cc(Nc2cccc(OC)c2)n2ncnc2n1 | -28.5%
69 | Cc1ccc2nc(SCC(=O)Nc3cccc([N+](=O)[O-])c3)[nH]c2c1 | -11.7%

Row | Structure (SMILES) | hERG current change (%, negative = inhibition) at 10uM
70 | Cc1ccccc1NC(=O)C1C2/C=C\CCCCC21 (stereo not shown) | -3.18%
71 | O=C(COc1ccc(F)cc1)N(Cc1cccc(Br)c1)C1CCS(=O)(=O)C1 (stereo not shown) | -24.4%
72 | COc1cc(OC)cc(-c2c(-c3ccc(F)cc3)c3cc(Br)ccc3n2C)c1 | -20.1%
73 | O=C(CNC(=S)N(CCCN1CCOCC1)Cc1cccs1)NC1CCCCCCC1 | -61.1%
74 | Cc1ccc(/C=N/NC(=O)c2c[nH]c3ccccc23)s1 | -4.28%
75 | O=C(CN1C(=O)/C(=C/c2cccc(Br)c2)SC1=S)NCCCN1CCOCC1 | 5.42%
76 | CCOc1cc(S(=O)(=O)Nc2ccc(Cl)cn2)ccc1F | 18%
77 | CCOC(=O)C1=C(CBr)NC(=O)NC1C (stereo not shown) | 26.6%
78 | O=c1c2ccccc2nnn1-c1ccc(Br)cc1 | 12%
79 | COC(=O)Cn1ccc2cc(S(=O)(=O)N3CCCCC3)ccc21 | -8.73%
80 | CC(=O)OC(C[N+]1(C)CCCCCC1)c1ccccc1.[I-] (stereo not shown) | 18.1%
81 | O=C(NNc1ccccc1F)c1ccccc1 | -6.12%
82 | C=CCNc1oc(-c2cccs2)nc1S(=O)(=O)c1ccccc1 | -24.7%
83 | CCN1CCN(C(=O)COc2ccc(S(=O)(=O)Nc3ccc(Cl)cc3)cc2)CC1 | -17.6%
84 | O=C(N/N=C/c1ccco1)c1cc(C2CC2)[nH]n1 | 18.1%
85 | COc1nc(-c2ccc(Cl)cc2)nnc1C | 2.25%
86 | COc1ccc(CNC(=O)c2cccc(N3CCCC3=O)c2)cc1 | -5.23%
87 | Cc1ccc(NC(=O)NC(=O)CN2CCC(C(N)=O)CC2)c(C)c1 | 12%
88 | O=C(O)c1ccc2c(c1)ncn2C1CCCC1 | 21.1%
89 | CCc1noc(C)c1C(=O)N1CCCSC1=Nc1ccccc1 | 2.65%
90 | O=C(CCc1ccc(S(=O)(=O)NCCc2ccccc2)cc1)Nc1ccc2c(c1)OCO2 | 12.3%
91 | CCOc1ccccc1NC(=O)NC(=O)N(C)S(=O)(=O)c1ccc(C)cc1 | 12.8%

Source: PMC4336329 (PLoS ONE, 2015)
